{"source": "patent US9879008B2", "about": "“2,3,4,6-tetra-substituted benzene-1,5-diamine derivatives, preparation method therefor and medicinal use thereof” (SHANGHAI HAIYAN PHARMACEUTICAL TECHNOLOGY CO., LTD., priority 2014, dated 2018)", "key": {"[1]": {"target": "T1, EGFR T790M/L858R double mutant EGFR kinase (Homo sapiens, UniProt P00533, L858R/T790M)", "details": "ratio of enzyme IC50 values"}, "[2]": {"target": "T1, EGFR T790M/L858R double mutant EGFR kinase", "assay": "biochemical"}}, "data": [{"smiles": "C=CC(=O)Nc1cc(Nc2ncc(C(F)(F)F)c(SC3CN(S(C)(=O)=O)C3)n2)c(OC)cc1N1CCC(N(C)C)CC1", "note": "[Compound J-59]", "values": [{"measurement": "Selective inhibitory activity against enzyme [IC50(EGFR WT)/IC50(T790M/L858R)]", "setting": "[1]", "value": 23}, {"measurement": "IC50", "setting": "[2]", "value": 1, "unit": "nM"}]}, {"smiles": "C=CC(=O)Nc1cc(Nc2ncc(Cl)c(NC3CN(S(C)(=O)=O)C3)n2)c(OC)cc1N1CCC(N(C)C)CC1", "note": "[Compound J-60, N-(5-(5-chloro-4-(1-(methylsulfonyl)azetidine-3-amino)pyrimidine-2-amino)-2-(4-(dimethylamino)piperidine-1-yl)-4-methoxyphenyl)acrylamide]", "values": [{"measurement": "Selective inhibitory activity against enzyme [IC50(EGFR WT)/IC50(T790M/L858R)]", "setting": "[1]", "value": 6}, {"measurement": "IC50", "setting": "[2]", "value": 1, "unit": "nM"}]}, {"smiles": "C=CC(=O)Nc1cc(Nc2ncc(Cl)c(NC3CN(C(C)=O)C3)n2)c(OC)cc1N1CCC(N(C)C)CC1", "note": "[Compound J-61]", "values": [{"measurement": "Selective inhibitory activity against enzyme [IC50(EGFR WT)/IC50(T790M/L858R)]", "setting": "[1]", "value": 10.1}, {"measurement": "IC50", "setting": "[2]", "value": 18, "unit": "nM"}]}, {"smiles": "C=CC(=O)Nc1cc(Nc2ncc(F)c(NC3CN(S(C)(=O)=O)C3)n2)c(OC)cc1N1CCC(N(C)C)CC1", "note": "[Compound J-62]", "values": [{"measurement": "Selective inhibitory activity against enzyme [IC50(EGFR WT)/IC50(T790M/L858R)]", "setting": "[1]", "value": 2}, {"measurement": "IC50", "setting": "[2]", "value": 3, "unit": "nM"}]}, {"smiles": "C=CC(=O)Nc1cc(Nc2ncc(Cl)c(N[C@@H]3CCCN(CCF)C3)n2)c(OC)cc1N1CCC(N(C)C)CC1", "note": "[Compound J-67]", "values": [{"measurement": "Selective inhibitory activity against enzyme [IC50(EGFR WT)/IC50(T790M/L858R)]", "setting": "[1]", "value": 2}, {"measurement": "IC50", "setting": "[2]", "value": 1, "unit": "nM"}]}, {"smiles": "C=CC(=O)Nc1cc(Nc2ncc(Cl)c(N[C@H]3CCCN(CCF)C3)n2)c(OC)cc1N1CCC(N(C)C)CC1", "note": "[Compound J-68]", "values": [{"measurement": "Selective inhibitory activity against enzyme [IC50(EGFR WT)/IC50(T790M/L858R)]", "setting": "[1]", "value": 2.9}, {"measurement": "IC50", "setting": "[2]", "value": 14, "unit": "nM"}]}, {"smiles": "C=CC(=O)Nc1cc(Nc2ncc(Cl)c(NC3CCN(S(C)(=O)=O)CC3)n2)c(OC)cc1N1CCC(N(C)C)CC1", "note": "[Compound J-69]", "values": [{"measurement": "Selective inhibitory activity against enzyme [IC50(EGFR WT)/IC50(T790M/L858R)]", "setting": "[1]", "value": 6.2}, {"measurement": "IC50", "setting": "[2]", "value": 17, "unit": "nM"}]}, {"smiles": "C=CC(=O)Nc1cc(Nc2ncc(Cl)c(OC3CN(S(C)(=O)=O)C3)n2)c(OC)cc1N1CCN(C)CC1", "note": "[Compound J-70, N-(5-(5-chloro-4-(1-(methylsulfonyl)azetidine-3-oxy)pyrimidine-2-amino)-4-methoxy-2-(4-methylpiperazine-1-yl)phenyl)acrylamide]", "values": [{"measurement": "Selective inhibitory activity against enzyme [IC50(EGFR WT)/IC50(T790M/L858R)]", "setting": "[1]", "value": 14}, {"measurement": "IC50", "setting": "[2]", "value": 1, "unit": "nM"}]}, {"smiles": "C=CC(=O)Nc1cc(Nc2ncc(Cl)c(OC3CN(S(C)(=O)=O)C3)n2)c(OC)cc1OCCN(C)C", "note": "[Compound J-71]", "values": [{"measurement": "Selective inhibitory activity against enzyme [IC50(EGFR WT)/IC50(T790M/L858R)]", "setting": "[1]", "value": 5.8}, {"measurement": "IC50", "setting": "[2]", "value": 4, "unit": "nM"}]}, {"smiles": "C=CC(=O)Nc1cc(Nc2ncc(Cl)c(N(C)C3CN(S(C)(=O)=O)C3)n2)c(OC)cc1N1CCC(N(C)C)CC1", "note": "[Compound J-73]", "values": [{"measurement": "Selective inhibitory activity against enzyme [IC50(EGFR WT)/IC50(T790M/L858R)]", "setting": "[1]", "value": 8}, {"measurement": "IC50", "setting": "[2]", "value": 3, "unit": "nM"}]}, {"smiles": "C=CC(=O)Nc1cc(Nc2ncc(Cl)c(NC3CC3)n2)c(OC)cc1N1CCC(N(C)C)CC1", "note": "[Compound J-74]", "values": [{"measurement": "Selective inhibitory activity against enzyme [IC50(EGFR WT)/IC50(T790M/L858R)]", "setting": "[1]", "value": 6.5}, {"measurement": "IC50", "setting": "[2]", "value": 33, "unit": "nM"}]}, {"smiles": "C=CC(=O)Nc1cc(Nc2ncc(Cl)c(OC3(C)CN(S(C)(=O)=O)C3)n2)c(OC)cc1N1CCC(N(C)C)CC1", "note": "[Compound J-75]", "values": [{"measurement": "Selective inhibitory activity against enzyme [IC50(EGFR WT)/IC50(T790M/L858R)]", "setting": "[1]", "value": 9.9}, {"measurement": "IC50", "setting": "[2]", "value": 47, "unit": "nM"}]}, {"smiles": "C=CC(=O)Nc1cc(Nc2ncc(Cl)c(OC3CN(S(C)(=O)=O)C3)n2)ccc1N1CCC(N(C)C)CC1", "note": "[Compound J-76]", "values": [{"measurement": "Selective inhibitory activity against enzyme [IC50(EGFR WT)/IC50(T790M/L858R)]", "setting": "[1]", "value": 14}, {"measurement": "IC50", "setting": "[2]", "value": 1, "unit": "nM"}]}]}
